Reference: the antibiotic and cytotoxicity screens of Wong et al. (2023)
This is one part of the list.

System: HepG2
Assay: cytotoxicity call (relative viability < 0.9)
Conditions: 10 µM

SMILES	cytotoxicity call
C[C@H](CO)N1C[C@H](C)[C@H](CN(C)Cc2ccc(C(=O)Nc3ccccc3N)cc2)Oc2c(NC(=O)Nc3ccc4c(c3)OCO4)cccc2C1=O	inactive
O=C(NO)c1cn(-c2ccc(C[C@H]3C(=O)O[C@@H](Cc4ccccc4)[C@H]4[C@@H]5C=CCCC=C5CN43)cc2)nn1	active
CC(C)NC(=O)Nc1ccc2c(c1)C(=O)N([C@H](C)CO)C[C@H](C)[C@@H](CN(C)S(C)(=O)=O)OCCCC[C@@H](C)O2	inactive
Cl.c1ccc(CC2=NCCN2)cc1	inactive
COCC(=O)N1C[C@@H](C)[C@H](OC)CN(C)C(=O)c2ccc(NC(=O)c3ccc(F)cc3)cc2OC[C@H]1C	inactive
CCCCn1nc(C2CC2)nc1Cn1ncnn1	inactive
C[C@@H]1CN([C@H](C)CO)C(=O)c2c(c3ccccc3n2C)-c2ccccc2CO[C@H]1CN(C)C(=O)Nc1cccc(C(F)(F)F)c1	inactive
C[C@H]1CN([C@@H](C)CO)C(=O)c2cc(Br)cnc2O[C@@H]1CN(C)S(=O)(=O)c1ccccc1	inactive
Cc1noc(C)c1NC(=O)N(C)C[C@@H]1OCCCC[C@H](C)Oc2ccc(NC(=O)Nc3cccc4ccccc34)cc2C(=O)N([C@@H](C)CO)C[C@H]1C	inactive
Cc1ccccc1OCC(=O)NCC(=O)O	inactive
C[C@@H]1CN([C@@H](C)CO)C(=O)c2c(c3ccccc3n2C)-c2ccccc2CO[C@H]1CN(C)C(=O)Nc1cccc(F)c1	inactive
C[C@@H]1CN([C@H](C)CO)C(=O)c2cc(NC(=O)Nc3ccc(F)cc3)ccc2O[C@@H](C)CCCCO[C@H]1CN(C)S(=O)(=O)c1cccs1	inactive
C[C@@H]1CN([C@@H](C)CO)C(=O)c2cccc(NC(=O)Nc3ccccc3)c2O[C@@H]1CN(C)C(=O)Nc1ccc(C(F)(F)F)cc1	inactive
C[C@@H]1CN([C@H](C)CO)C(=O)Cc2cc(NC(=O)Nc3cccc4ccccc34)ccc2O[C@H]1CN(C)S(=O)(=O)c1ccc(F)cc1	inactive
Cl.NC(N)=NC(=O)Cc1c(Cl)cccc1Cl	inactive
C[C@H]1CN([C@@H](C)CO)C(=O)c2cccc(NC(=O)C3CCOCC3)c2O[C@H]1CN(C)S(=O)(=O)c1cn(C)cn1	inactive

SMILES	cytotoxicity call
Cc1c(O[C@@H]2O[C@H](COC(=O)C[C@@](C)(O)CC(=O)O)C[C@H](O)[C@H]2O)occc1=O	inactive
C[C@H]1CN([C@@H](C)CO)C(=O)c2cc(NC(=O)CCC(F)(F)F)ccc2O[C@@H]1CN(C)Cc1ccc(Cl)c(Cl)c1	inactive
COc1ccc(S(=O)(=O)N[C@@H]2C=C[C@@H](CC(=O)N3CCN(c4ccccc4)CC3)O[C@@H]2CO)cc1	inactive
C[C@@H]1CCCCO[C@@H](CN(C)C(=O)Nc2ccc(C(F)(F)F)cc2)[C@H](C)CN([C@H](C)CO)C(=O)c2cc(NS(=O)(=O)c3ccc(F)cc3)ccc2O1	inactive
Cn1nnc(NCc2ccccc2)n1	inactive
O=C(CCCCCC(=O)N/N=C/[C@H](O)[C@@H](O)[C@H](O)CO)NO	inactive
CCc1cc(=O)oc2cc(O[C@@H](C)C(=O)N[C@@H](CCCNC(=N)N)C(=O)O)ccc12	inactive
C[C@H](CO)N1C[C@H](C)[C@H](CN(C)S(=O)(=O)c2cccs2)Oc2c(NS(=O)(=O)c3cccs3)cccc2C1=O	inactive
Cc1ccc(-c2cnc3c(c2)C(=O)N([C@@H](C)CO)C[C@@H](C)[C@H](CN(C)C(=O)Cc2cccnc2)O3)cc1	inactive
CC1(C)S[C@@H]2[C@H](NC(=O)[C@H](NC(=O)N3CCNC3=O)c3ccccc3)C(=O)N2[C@H]1C(=O)O	inactive
COc1ccccc1C#Cc1cnc2c(c1)C(=O)N([C@H](C)CO)C[C@H](C)[C@H](CN(C)C(=O)CC1CC1)O2	inactive
C[C@H](CO)N1C[C@H](C)[C@H](CN(C)S(=O)(=O)c2cccs2)OCCCC[C@H](C)Oc2ccc(NC(=O)Cc3ccccc3)cc2C1=O	inactive
COc1ccc2c3c(n(c2c1)C)[C@H](CO)N(C[C@]13CN(C1)C(=O)Cc1ccccc1)C(=O)c1ccccn1	inactive
C[C@H](CO)N1C[C@H](C)[C@@H](CN(C)Cc2ccc(-c3ccccc3)cc2)Oc2c(NC(=O)CCCCCC(=O)Nc3ccccc3N)cccc2C1=O	active
C[C@H](CO)N1C[C@H](C)[C@@H](CN(C)C(=O)Nc2cccc3ccccc23)Oc2c(NS(=O)(=O)c3ccccc3)cccc2C1=O	inactive
